# Hit rate of the full screen: of about 310,000 compounds, about 14,000 (4.5%) showed an effect of 50% or more. Effects have a minus sign here. This is one part of the list.
# Biological target: human ether-à-go-go-related gene (hERG) potassium channel (human, UniProt Q12809)
# Assay: primary screen, population patch clamp on CHO cells stably expressing hERG
# 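Further: peak tail current of the secondary pulse compared with the same well before compound.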
# Sequence of human ether-à-go-go-related gene (hERG) potassium channel (Q12809 whole entry, looked up): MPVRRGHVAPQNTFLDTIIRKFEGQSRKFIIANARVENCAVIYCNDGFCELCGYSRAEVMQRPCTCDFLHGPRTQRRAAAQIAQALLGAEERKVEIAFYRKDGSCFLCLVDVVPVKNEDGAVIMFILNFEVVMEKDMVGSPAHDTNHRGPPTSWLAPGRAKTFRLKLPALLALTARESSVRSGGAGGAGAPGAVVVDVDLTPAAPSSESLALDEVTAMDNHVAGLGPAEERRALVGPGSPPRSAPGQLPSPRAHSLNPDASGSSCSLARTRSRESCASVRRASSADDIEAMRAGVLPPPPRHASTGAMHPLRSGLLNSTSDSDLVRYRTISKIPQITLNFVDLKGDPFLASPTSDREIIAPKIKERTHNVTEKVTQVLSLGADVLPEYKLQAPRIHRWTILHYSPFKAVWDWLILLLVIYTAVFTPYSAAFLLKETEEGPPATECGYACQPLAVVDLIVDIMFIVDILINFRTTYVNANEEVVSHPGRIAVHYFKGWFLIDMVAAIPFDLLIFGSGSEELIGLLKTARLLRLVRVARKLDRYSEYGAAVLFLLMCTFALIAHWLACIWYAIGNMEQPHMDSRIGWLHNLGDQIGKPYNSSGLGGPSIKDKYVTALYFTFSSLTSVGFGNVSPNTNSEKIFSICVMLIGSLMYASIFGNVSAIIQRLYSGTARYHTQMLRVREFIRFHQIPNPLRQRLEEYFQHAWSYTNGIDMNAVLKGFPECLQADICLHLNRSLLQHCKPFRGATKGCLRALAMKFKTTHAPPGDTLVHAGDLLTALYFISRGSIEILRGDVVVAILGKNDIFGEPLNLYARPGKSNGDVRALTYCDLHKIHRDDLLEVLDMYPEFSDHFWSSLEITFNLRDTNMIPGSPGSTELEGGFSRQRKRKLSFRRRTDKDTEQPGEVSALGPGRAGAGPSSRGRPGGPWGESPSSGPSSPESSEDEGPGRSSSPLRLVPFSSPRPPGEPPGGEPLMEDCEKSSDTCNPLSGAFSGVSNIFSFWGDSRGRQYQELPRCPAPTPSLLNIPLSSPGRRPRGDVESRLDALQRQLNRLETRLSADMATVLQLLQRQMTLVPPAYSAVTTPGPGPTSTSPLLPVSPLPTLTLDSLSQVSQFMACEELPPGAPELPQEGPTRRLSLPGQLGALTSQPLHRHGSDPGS
row,SMILES,"hERG current change (%, negative = inhibition) at 10uM [%]"
1,CC(C(=O)Nc1ccccc1-c1ccccc1)N1CCOCC1 (stereo not shown),-2
2,COc1ccccc1Nc1nc(N2CCOCC2)nc(N2CCOCC2)n1,8.91
3,Cc1ccc(-n2nc3c(c2NC(=O)c2ccc4c(c2)OCO4)CS(=O)C3)c(C)c1 (stereo not shown),-12.7
4,COc1ccc(C2C(C(C)=O)=C(O)C(=O)N2CCCn2ccnc2)cc1 (stereo not shown),1.92
5,O=C1c2ccccc2C(Nc2ccc3c(c2)OCCO3)N1Cc1ccccc1 (stereo not shown),-18.2
6,O=C(CCN1CCCO1)N1CCCC(N2CCN(c3cccc(C(F)(F)F)c3)CC2)C1 (stereo not shown),-10.2
7,Cn1c(SCc2ccccc2)nc2c1c(=O)[nH]c(=O)n2C,5.9
8,COC(=O)c1ccc(C(=O)OC)c(NC(=O)CSCC(=O)O)c1,18.4
9,CCOC(=O)C1=C(COC(=O)c2cc(OC)c(OC)cc2[N+](=O)[O-])NC(=O)NC1C (stereo not shown),8.98
10,C/C(=N\NC(=O)c1ccc(-c2ccccc2)cc1)c1cccc(N)c1,31.7
11,CC(C(=O)OCC(=O)c1ccccc1)N1C(=O)C2C3CCC(C3)C2C1=O (stereo not shown),10.5
12,CC(=O)Nc1c2c(nn1-c1ccc(Cl)cc1)CSC2,12.7
13,CN(C)S(=O)(=O)c1ccc(Cl)c(NC(=O)CN2CCCC2)c1,11.5
14,CCOC(=O)C(C)c1nc2ccccc2[nH]c1=O (stereo not shown),11
15,CCOC(=O)C1CCCN(CCC(C)c2ccccc2)C1 (stereo not shown),-36.5
16,O=C(C(Cl)c1ccccc1)N1CCCC1 (stereo not shown),1.03
17,COc1ccc(Br)cc1/C=N/Nc1cccc(C(=O)O)c1,-0.694
18,O=C(CSc1nc2ccccc2[nH]1)Nc1c(F)cccc1F,18.7
19,CCOC(=O)C(CC(=O)O)N1CCCCC1 (stereo not shown),13
20,Cc1cc2occ(CC(=O)N(CC(C)C)c3c(N)n(Cc4ccccc4)c(=O)[nH]c3=O)c2cc1C,-18.4
21,CNC(=S)N1CCC(NC(=O)C(Cc2ccc(F)cc2)NC(C)=O)CC1 (stereo not shown),17.6
22,Cc1oc2c(CN3CCCCC3C)c(O)ccc2c(=O)c1-c1ccccc1 (stereo not shown),-27.6
23,COc1ccc(C/C(N)=N/OC(=O)c2cccs2)cc1,12.8

row,SMILES,"hERG current change (%, negative = inhibition) at 10uM [%]"
1,N#Cc1nnn(-c2cc(Cl)cc(Cl)c2)c1N,-1.85
2,O=C1C=C(Nc2cccc3cccnc23)c2ccccc2C1=O,-4.05
3,CCOc1ccccc1NC(=O)C1CCCCN1S(=O)(=O)c1ccc(F)cc1 (stereo not shown),-2.26
4,CCSC(=O)N1CCCCCC1,10.1
5,O=C(COC(=O)c1cc(Cl)ccc1O)c1ccc2c(c1)OCO2,-16.6
6,COc1ccc(C)cc1Nc1n[n+](-c2ccccc2)c(-c2ccc(C(=O)O)cc2)s1.[Cl-],18
7,COc1ccc(CN(C)C(=S)Nc2ccc(Cl)cc2Cl)cc1,10.4
8,O=C(c1cc(Cl)ccc1[N+](=O)[O-])N1CCc2ccccc2C1,-0.00022
9,COc1ccc(OCC(O)CNC(=O)c2ccccc2C(=O)O)cc1 (stereo not shown),3.28
10,COc1cc([C@@H]2CC=C(C(=O)O)[C@H](c3ccccc3F)N2S(=O)(=O)c2ccc(C)cc2)cc(OC)c1OC,26.5
11,O=C1NCCN1Cc1cccc(Cl)c1,-9.9
12,CCC(C)CCN1CCN=C1Nc1ccccc1 (stereo not shown),-1.89
13,COc1cccc(N2CCN(c3ncnc4c3cnn4-c3ccc(C)cc3C)CC2)c1,-0.12
14,CCCC(C)c1nnc(NC(=O)CCS(=O)(=O)c2ccccc2)s1 (stereo not shown),11.5
15,Br.O=C(Cn1c(NCCO)nc2ccccc21)c1cccs1,10.7
16,CCCCCNCc1ccc(OCc2ccc(Cl)nc2)c(OC)c1,-45.8
17,CNCCCc1ccccc1.Cl,-38.7
18,C/C(=N\NC(=O)CN1CCN(S(=O)(=O)c2ccc(C)cc2)CC1)c1cccnc1,-46.9
19,Cc1ccc(C(=O)NC=C(Cl)Cl)cc1,0.39
20,O=C(NCc1cccnc1)c1cccnc1-c1nc2ccccc2s1,-14
21,C/C(CC(=O)Nc1ccc(Cl)cc1)=N\NC(=O)C(=O)N1CCCCC1,15.4
22,CCN(C(=O)CSc1nc(N)cc(N)n1)C1CCS(=O)(=O)C1 (stereo not shown),7.13
23,CCC(CC)C(=O)Nc1cccc(C(=O)Nc2nnc(C)s2)c1,21.1

# — article PMC4336329 (PLoS ONE, 2015)
